Reference: US11365205B2 (Aurigene Discovery Technologies Limited, priority 2018, dated 2022)

Molecular target: PRMT5/MEP50 Complex (Homo sapiens (Human), UniProt O14744)
Assay: PRMT5 inhibition based on TR-FRET assay
Format: biochemical
Conditions: 32 nM PRMT5:MEP50, 50 nM Histone-H4 peptide, 1 μM SAM
Description: PRMT5 Inhibition Based on TR-FRET Assay:
Protein arginine methyltransferase 5 (PRMT5) is a type II arginine methyltransferase that catalyze mono- and symmetric demethylation on arginine residues of histone or non-histone proteins in presence of S-adenosylmethionine (AdoMet or SAM) a cofactor responsible for donating the methyl group. PRMT5 is reported to be overexpressed in several human cancers. To identify compounds that inhibit the PRMT5 and decrease its activity, a TR-FRET based assay has been established. Time-resolved fluorescence resonance energy transfer (TR-FRET) HTS assays are homogeneous proximity assays where the interaction of two dye-labeled binding partners is detected by the energy transfer between a donor and an acceptor dye and the subsequent light emission by the acceptor dye. PRMT5 catalyzes Histone H4 peptide which is biotin tagged to the Lysine amino acid at carboxyl end, in presence of S-adenosyl-1-methionine (SAM) to methylate the peptide. The antibody specific to mono methylated H4 peptide (H4R3) with Ig conjugate binds to the methylated peptide, indirectly binding to the Europium lanthanide. […]
The compound dilutions were prepared as 7.5% DMSO stock solutions in assay buffer. […] The plates were then read on Victor-3 with Excitation at 340 nm and Emissions collected at 615 and 665 nm in TR-FRET protocol. […]

Sequence of UniProt O14744 (O14744 whole entry): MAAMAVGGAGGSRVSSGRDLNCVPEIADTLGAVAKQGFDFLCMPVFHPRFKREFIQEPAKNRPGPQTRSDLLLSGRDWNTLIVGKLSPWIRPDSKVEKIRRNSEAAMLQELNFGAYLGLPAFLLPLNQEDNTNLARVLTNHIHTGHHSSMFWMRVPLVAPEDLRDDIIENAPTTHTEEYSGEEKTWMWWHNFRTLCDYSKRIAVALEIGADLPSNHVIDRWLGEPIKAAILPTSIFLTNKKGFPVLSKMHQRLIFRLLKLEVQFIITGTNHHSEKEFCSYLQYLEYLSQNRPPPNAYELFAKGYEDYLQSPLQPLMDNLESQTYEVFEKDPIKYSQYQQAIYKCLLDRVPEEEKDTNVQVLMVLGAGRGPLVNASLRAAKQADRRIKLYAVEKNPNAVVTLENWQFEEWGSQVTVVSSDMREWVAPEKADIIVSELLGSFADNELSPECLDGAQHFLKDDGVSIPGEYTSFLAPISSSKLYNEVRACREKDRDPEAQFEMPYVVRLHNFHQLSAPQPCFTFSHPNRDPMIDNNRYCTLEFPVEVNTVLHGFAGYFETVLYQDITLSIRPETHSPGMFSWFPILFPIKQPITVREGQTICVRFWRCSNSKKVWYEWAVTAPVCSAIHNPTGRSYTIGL
Sequence of UniProt O14744 (Q9BQA1 whole entry partner): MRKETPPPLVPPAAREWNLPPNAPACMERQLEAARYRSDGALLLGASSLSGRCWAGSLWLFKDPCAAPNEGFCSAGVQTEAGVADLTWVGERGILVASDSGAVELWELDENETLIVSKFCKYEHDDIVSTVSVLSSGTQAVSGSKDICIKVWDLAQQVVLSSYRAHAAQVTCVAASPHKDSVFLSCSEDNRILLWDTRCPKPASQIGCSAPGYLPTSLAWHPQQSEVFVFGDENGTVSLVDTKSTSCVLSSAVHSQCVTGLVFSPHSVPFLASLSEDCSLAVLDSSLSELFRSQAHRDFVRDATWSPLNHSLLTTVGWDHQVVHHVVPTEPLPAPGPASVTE

IC50 [nM]	Structure (SMILES)
130	CC(C)c1ccc(CN2C(=O)N(CC(O)CN3CCc4ccccc4C3)C(C)(C)C2=O)nc1 (centres unmarked) [Example 30, 1-(3-(3,4-Dihydroisoquinolin-2(1H)-yl)-2-hydroxypropyl)-3-((5-isopropylpyridin-2-yl)methyl)-5,5-dimethylimidazolidine-2,4-dione]
50	CC(C)c1ccc(CN2CCN(CC(O)CN3CCc4ccccc4C3)C2=O)nc1 (centres unmarked) [Example 31, 1-(3-(3,4-Dihydroisoquinolin-2(1H)-yl)-2-hydroxypropyl)-3-((5-isopropylpyridin-2-yl)methyl)imidazolidin-2-one]
